B1: variant CD80 IgV-Fc A26E/E35D/M47L/V68M/A71G/D90G (Fc fusion, not shown: small tags and cut ends; a dimerising Fc or GST)
chain: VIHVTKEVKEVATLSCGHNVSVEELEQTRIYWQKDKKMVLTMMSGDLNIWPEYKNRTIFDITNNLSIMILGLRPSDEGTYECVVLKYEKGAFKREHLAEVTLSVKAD
B2: variant CD80 IgV-Fc H18Y/A26E/E35D/M47L/V68M/D90G (Fc fusion, not shown: small tags and cut ends; a dimerising Fc or GST)
chain: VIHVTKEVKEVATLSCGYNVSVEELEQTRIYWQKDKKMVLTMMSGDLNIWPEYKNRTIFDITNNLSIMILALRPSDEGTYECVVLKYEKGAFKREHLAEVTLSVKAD
B3: variant CD80 IgV-Fc H18Y/A26E/M47L/V68M/D90G (Fc fusion, not shown: small tags and cut ends; a dimerising Fc or GST)
chain: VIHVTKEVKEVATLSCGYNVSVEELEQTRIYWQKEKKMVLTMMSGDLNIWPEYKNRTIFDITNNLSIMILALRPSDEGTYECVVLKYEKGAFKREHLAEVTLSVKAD
B4: variant CD80 IgV-Fc A26E/E35D/V68M/A71G/D90G (Fc fusion, not shown: small tags and cut ends; a dimerising Fc or GST)
chain: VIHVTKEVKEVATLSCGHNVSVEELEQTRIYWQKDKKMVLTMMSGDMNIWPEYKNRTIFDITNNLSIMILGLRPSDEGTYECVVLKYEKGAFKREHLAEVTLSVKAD
B5: variant CD80 IgV-Fc H18Y/A26E/E35D/A71G/D90G (Fc fusion, not shown: small tags and cut ends; a dimerising Fc or GST)
chain: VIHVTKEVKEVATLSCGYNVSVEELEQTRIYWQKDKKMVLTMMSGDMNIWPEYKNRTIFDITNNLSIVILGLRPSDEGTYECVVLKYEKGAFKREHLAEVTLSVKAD
B6: variant CD80 IgV-Fc H18Y/A26E/E35D/M47L/D90G (Fc fusion, not shown: small tags and cut ends; a dimerising Fc or GST)
chain: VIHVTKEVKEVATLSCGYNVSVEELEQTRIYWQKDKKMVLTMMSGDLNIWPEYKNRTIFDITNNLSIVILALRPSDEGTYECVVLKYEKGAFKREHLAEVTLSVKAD
B7: variant CD80 IgV-Fc H18Y/A26E/E35D/V68M/A71G (Fc fusion, not shown: small tags and cut ends; a dimerising Fc or GST)
chain: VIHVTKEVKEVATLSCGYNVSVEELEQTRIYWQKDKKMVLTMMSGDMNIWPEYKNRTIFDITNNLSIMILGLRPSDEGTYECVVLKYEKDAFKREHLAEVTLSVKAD
B8: variant CD80 IgV-Fc H18Y/E35D/M47L/V68M/A71G (Fc fusion, not shown: small tags and cut ends; a dimerising Fc or GST)
chain: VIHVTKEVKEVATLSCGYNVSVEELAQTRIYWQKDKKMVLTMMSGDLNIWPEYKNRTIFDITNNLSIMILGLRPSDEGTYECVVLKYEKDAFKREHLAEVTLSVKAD
B9: variant CD80 IgV-Fc H18Y/A26E/E35D/V68M/A71G/D90G (Fc fusion, not shown: small tags and cut ends; a dimerising Fc or GST)
chain: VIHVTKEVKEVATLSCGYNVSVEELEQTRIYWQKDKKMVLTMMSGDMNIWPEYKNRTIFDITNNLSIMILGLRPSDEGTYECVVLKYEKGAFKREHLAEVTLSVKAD
B10: variant CD80 IgV-Fc H18Y/A26E/V68M/A71G/D90G (Fc fusion, not shown: small tags and cut ends; a dimerising Fc or GST)
chain: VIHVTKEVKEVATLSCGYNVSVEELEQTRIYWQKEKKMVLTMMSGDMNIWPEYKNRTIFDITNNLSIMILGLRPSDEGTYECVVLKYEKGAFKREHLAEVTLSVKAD
B11: variant CD80 IgV-Fc H18Y/A26E/E35D/V68M/D90G (Fc fusion, not shown: small tags and cut ends; a dimerising Fc or GST)
chain: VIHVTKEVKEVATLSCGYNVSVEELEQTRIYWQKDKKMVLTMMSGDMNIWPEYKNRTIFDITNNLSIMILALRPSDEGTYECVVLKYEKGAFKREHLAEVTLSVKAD
B12: variant CD80 IgV-Fc H18Y/A26E/E35D/M47L/A71G (Fc fusion, not shown: small tags and cut ends; a dimerising Fc or GST)
chain: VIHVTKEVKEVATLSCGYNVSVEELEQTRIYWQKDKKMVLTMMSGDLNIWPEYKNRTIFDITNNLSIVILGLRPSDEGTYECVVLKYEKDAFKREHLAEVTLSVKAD
B13: variant CD80 IgV-Fc H18Y/E35D/M47L/V68M/A71G/D90G (Fc fusion, not shown: small tags and cut ends; a dimerising Fc or GST)
chain: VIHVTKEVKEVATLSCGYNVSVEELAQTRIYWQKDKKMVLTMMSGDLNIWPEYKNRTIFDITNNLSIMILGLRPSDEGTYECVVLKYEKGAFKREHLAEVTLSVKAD
B14: variant CD80 IgV-Fc H18Y/E35D/M47L/V68M/D90G (Fc fusion, not shown: small tags and cut ends; a dimerising Fc or GST)
chain: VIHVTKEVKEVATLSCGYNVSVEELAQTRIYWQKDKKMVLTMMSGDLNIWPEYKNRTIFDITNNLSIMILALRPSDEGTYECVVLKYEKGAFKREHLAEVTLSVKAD
B15: variant CD80 IgV-Fc H18Y/A26E/E35D/M47L/V68M (Fc fusion, not shown: small tags and cut ends; a dimerising Fc or GST)
chain: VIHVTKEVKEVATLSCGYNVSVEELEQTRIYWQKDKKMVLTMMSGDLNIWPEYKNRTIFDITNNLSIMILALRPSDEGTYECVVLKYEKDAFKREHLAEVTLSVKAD
B16: variant CD80 IgV-Fc H18Y/A26E/M47L/A71G/D90G (Fc fusion, not shown: small tags and cut ends; a dimerising Fc or GST)
chain: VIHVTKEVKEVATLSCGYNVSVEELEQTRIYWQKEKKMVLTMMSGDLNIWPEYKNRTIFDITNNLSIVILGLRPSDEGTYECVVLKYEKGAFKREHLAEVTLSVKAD
B17: variant CD80 IgV-Fc (inert) H18A/A26N/E35D/M47L/V68M/A71G/D90G (Fc fusion)
chain: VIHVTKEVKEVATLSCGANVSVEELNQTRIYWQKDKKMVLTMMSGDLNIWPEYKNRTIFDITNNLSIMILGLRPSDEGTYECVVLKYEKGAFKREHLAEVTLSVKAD
notes: not shown: inert human IgG1 Fc
B18: variant CD80 IgV-Fc (inert) H18V/A26S/E35D/M47L/V68M/A71G/D90G (Fc fusion)
chain: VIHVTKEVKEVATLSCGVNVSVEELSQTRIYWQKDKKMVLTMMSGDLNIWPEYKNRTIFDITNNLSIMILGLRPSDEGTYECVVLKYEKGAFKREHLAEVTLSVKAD
notes: as for B17
B19: variant CD80 IgV-Fc (inert) H18Y/E35D/M47V/V68M/A71G/D90G (Fc fusion)
chain: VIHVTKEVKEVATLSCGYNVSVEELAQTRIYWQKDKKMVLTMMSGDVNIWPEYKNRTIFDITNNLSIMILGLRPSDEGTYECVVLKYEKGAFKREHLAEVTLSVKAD
notes: as for B17
B20: variant CD80 IgV-Fc (inert) H18Y/A26Q/E35D/M47T/V68M/A71G/D90G (Fc fusion)
chain: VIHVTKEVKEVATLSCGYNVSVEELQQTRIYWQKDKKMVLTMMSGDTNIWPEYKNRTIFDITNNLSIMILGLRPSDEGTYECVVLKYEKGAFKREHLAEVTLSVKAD
notes: as for B17
B21: variant CD80 IgV-Fc (inert) H18A/A26P/E35D/M47L/V68M/A71G/D90G (Fc fusion)
chain: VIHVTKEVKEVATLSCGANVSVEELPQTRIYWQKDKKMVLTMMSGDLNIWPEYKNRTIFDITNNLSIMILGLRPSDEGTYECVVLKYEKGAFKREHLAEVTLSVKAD
notes: as for B17

target: T1, human CD28 (human, UniProt P10747 19-220); assay: flow cytometry, Jurkat/IL2 reporter cells (endogenous CD28); MFI against WT CD80 IgV-Fc

Fold change to WT CD80 [fold]	Binder
50.4	B1
60.9	B2
0.7	B3
47.9	B4
24.5	B5
31.4	B6
9	B7
21.1	B8
40	B9
61.1	B10
58.9	B11
8.6	B12

target: T2, human PD-L1 (human, UniProt Q9NZQ7); assay: flow cytometry; PD-L1 MFI over CD28 MFI at 33.3 nM
T2 construct: also called huPD-L1; CD274

Ratio of PDL1:CD28 [ratio]	Binder
13.7	B1
9.4	B2
737	B3
12.6	B4
13.8	B5
9.2	B6
69.7	B7
32.7	B8
16.3	B9
10.4	B10
9	B11
44.6	B12

target: T2, human PD-L1; assay: flow cytometry, CHO cells expressing huPD-L1

MFI at 33.3 nM [MFI]	Binder
30200	B1
25200	B2
23600	B3
26500	B4
14800	B5
29900	B13
27400	B14
12700	B6
27500	B7
24700	B15
30400	B8
28700	B9
27900	B10
23200	B11
16900	B12

target: T2, human PD-L1; assay: flow cytometry, CHO cells expressing huPD-L1; MFI against WT CD80 IgV-Fc

Fold change to WT CD80 [fold]	Binder
693	B1
578	B2
541	B3
608	B4
340	B5
291	B6
630	B7
697	B8
658	B9
639	B10
532	B11
387	B12

target: T3, human CTLA4 (human, UniProt P16410 36-223); assay: flow cytometry, CHO cells expressing huCTLA4
T3 construct: also called huCTLA4

MFI at 33.3 nM [MFI]	Binder
21700	B1
24900	B2
28600	B3
23300	B4
25400	B16
19900	B13
19700	B6
19400	B7
20000	B15
23700	B8
23400	B9
18300	B10
19300	B11
19400	B12

target: T4, human CTLA-4 (human, UniProt P16410 36-223); assay: flow cytometry, CHO cells stably expressing huCTLA-4, 33.3 nM Fc fusion, PE anti-human Fc
T4 construct: whole, on cells; CHO cells stably expressing huCTLA4; also called huCTLA4

MFI at 33.3 nM [MFI]	Binder
21400	B17
24900	B18
17200	B19
16700	B20
23800	B21

target: T5, human PD-L1 (human, UniProt Q9NZQ7); assay: flow cytometry MFI relative to WT CD80 IgV-Fc, CHO/huPD-L1 cells, 33.3 nM
T5 construct: whole, on cells; CHO cells stably expressing huPD-L1; also called huPD-L1

Fold change to WT CD80 [fold]	Binder
220	B17
448	B18
316	B19
148	B20
203	B21

target: T4, human CTLA-4; assay: flow cytometry MFI relative to WT CD80 IgV-Fc, CHO/huCTLA-4 cells, 33.3 nM
T4 sequence (P16410 36-223): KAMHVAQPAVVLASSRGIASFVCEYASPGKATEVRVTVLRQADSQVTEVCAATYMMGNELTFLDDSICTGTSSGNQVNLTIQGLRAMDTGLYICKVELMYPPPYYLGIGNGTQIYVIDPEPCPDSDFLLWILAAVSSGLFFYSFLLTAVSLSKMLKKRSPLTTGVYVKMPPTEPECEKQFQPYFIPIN

Fold change to WT CD80 [fold]	Binder
15.4	B17
18	B18
12.4	B19
12	B20
17.2	B21

target: T5, human PD-L1; assay: flow cytometry, MFI on CHO/huPD-L1 cells divided by MFI on Jurkat cells (CD28), 33.3 nM

Ratio of PDL1:CD28 [ratio]	Binder
7.4	B17
9.2	B18
7.7	B19
3.6	B20
7.1	B21

target: T3, human CTLA4; assay: flow cytometry, CHO cells expressing huCTLA4; MFI against WT CD80 IgV-Fc
T3 sequence (P16410 36-223): as above

Fold change to WT CD80 [fold]	Binder
16	B1
18.3	B2
21.1	B3
17.1	B4
-0.1	B5
14.5	B6
14.3	B7
17.4	B8
17.2	B9
13.5	B10
14.2	B11
14.2	B12

target: T1, human CD28; assay: flow cytometry, Jurkat/IL2 reporter cells (endogenous CD28)

MFI at 33.3 nM [MFI]	Binder
2210	B1
2680	B2
2100	B4
1080	B5
2050	B16
3390	B14
1380	B6
394	B7
928	B8
1760	B9
2680	B10
2580	B11
379	B12

target: T5, human PD-L1; assay: flow cytometry, CHO cells stably expressing huPD-L1, 33.3 nM Fc fusion, PE anti-human Fc

MFI at 33.3 nM [MFI]	Binder
36300	B17
73900	B18
52200	B19
24400	B20
33400	B21

target: T6, human CD28 (human, UniProt P10747 19-220); assay: flow cytometry, Jurkat/IL2 reporter cells (endogenous CD28), 33.3 nM Fc fusion, PE anti-human Fc
T6 construct: whole, on cells; Jurkat/IL2 reporter cells, which endogenously express CD28

MFI at 33.3 nM [MFI]	Binder
4910	B17
8060	B18
6790	B19
6730	B20
4730	B21

target: T6, human CD28; assay: flow cytometry MFI relative to WT CD80 IgV-Fc, Jurkat cells (CD28), 33.3 nM

Fold change to WT CD80 [fold]	Binder
48.2	B17
79	B18
66.6	B19
66	B20
46.4	B21

Source: US20210130436A1 (published 2021)
